In PubChem BioAssay AID504339 (National Center for Advancing Translational Sciences (NCATS), 2011):
Screen size: about 390,000 compounds; about 17,000 (4.4%) were called active. Inconclusive results, whose numbers are uncertain, are shown with a selection of clear calls. The call rests on the fitted dose curve; in most records, active means well fitted inhibition curve with a large enough effect; inconclusive means small, poorly fitted or top-dose-only effect; inactive means no such curve, though single readings can be large or run the other way. Potencies of inconclusive entries are doubtful fits and often do not repeat.

These molecules were tested against Lysine-specific demethylase 4A (Homo sapiens) (UniProt O75164) (assay: qHTS Assay for Inhibitors of JMJD2A-Tudor Domain). Conditions: AlphaScreen JMJD2A-Tudor / H3K4me3 peptide binding; activity change, negative = inhibition: at 114 µM (top of the series).
Further: nearly all actives have a fitted effect of over 50% in size.
On the % scale 0 is the no-effect control and ±100 the full control effect; potency means the concentration at half of the fitted maximal effect; tags describe the fitted curve by direction and shape.

Sequence of UniProt O75164 (O75164 whole entry, looked up, the tested form may be a part): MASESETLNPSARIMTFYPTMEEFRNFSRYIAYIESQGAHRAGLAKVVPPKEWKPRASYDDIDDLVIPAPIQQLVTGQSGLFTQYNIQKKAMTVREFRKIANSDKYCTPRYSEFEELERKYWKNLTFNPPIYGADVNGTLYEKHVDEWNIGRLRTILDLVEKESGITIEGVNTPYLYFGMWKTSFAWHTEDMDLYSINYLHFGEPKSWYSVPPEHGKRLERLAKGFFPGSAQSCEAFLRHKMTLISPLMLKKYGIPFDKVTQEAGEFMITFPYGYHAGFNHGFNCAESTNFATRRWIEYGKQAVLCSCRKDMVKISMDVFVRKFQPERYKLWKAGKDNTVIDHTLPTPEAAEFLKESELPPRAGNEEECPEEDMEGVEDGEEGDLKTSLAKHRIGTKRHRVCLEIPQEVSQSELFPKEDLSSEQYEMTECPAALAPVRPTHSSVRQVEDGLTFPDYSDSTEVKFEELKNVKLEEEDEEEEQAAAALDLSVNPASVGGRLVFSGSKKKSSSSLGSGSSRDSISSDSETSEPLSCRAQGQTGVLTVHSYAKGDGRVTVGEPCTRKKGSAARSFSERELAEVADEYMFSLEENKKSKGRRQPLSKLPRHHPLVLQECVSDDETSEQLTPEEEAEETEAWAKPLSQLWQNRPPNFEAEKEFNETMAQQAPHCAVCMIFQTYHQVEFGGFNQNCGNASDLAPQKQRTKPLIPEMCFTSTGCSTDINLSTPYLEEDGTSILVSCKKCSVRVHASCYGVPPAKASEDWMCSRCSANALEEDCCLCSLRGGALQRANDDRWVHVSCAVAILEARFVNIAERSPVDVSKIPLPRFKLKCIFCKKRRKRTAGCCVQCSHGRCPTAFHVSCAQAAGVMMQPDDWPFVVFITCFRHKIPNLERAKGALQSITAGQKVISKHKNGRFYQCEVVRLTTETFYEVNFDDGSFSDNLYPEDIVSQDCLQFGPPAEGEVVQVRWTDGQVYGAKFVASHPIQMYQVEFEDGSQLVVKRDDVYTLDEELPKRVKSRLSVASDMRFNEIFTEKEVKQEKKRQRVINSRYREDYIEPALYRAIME

Potency, active:
CCN(CC)c1nc(N)c2c(N)n(-c3ccccc3C)c(=S)c(C#N)c2c1C#N 39.8 µM
CCC(=O)N(CCC(c1ccco1)C(C)C)Cc1ccccc1 (centres undefined) 79.4 µM
COC(=O)C/C=N/N=C1/NC(=O)/C(=C/C(=O)O)S1 50.1 µM
NS(=O)(=O)c1ccc(NC(=O)c2c(Cl)cccc2Cl)cc1 28.2 µM

Potency, inconclusive:
Cn1c(=O)n(C/C=C/c2ccccc2)c(=O)c2c1nc1n2CCCN1Cc1ccccc1 20 µM [inhibitor, full curve]
O=C(c1ccc2nc(Cc3ccccc3F)oc2c1)N1CC[C@H](O)C1 31.6 µM [inhibitor, single point]
COc1cc(NC(=O)CSc2ncc(S(=O)(=O)c3ccc(Br)cc3)c(=O)[nH]2)cc(OC)c1 79.4 µM [inhibitor, single point]
COc1ccc(/C=N/Nc2nc3ccccc3[nH]2)c(OC)c1OC 50.1 µM [inhibitor, partial curve]
Fc1ccc(C2CCNCC2COc2ccc3c(c2)OCO3)cc1 (centres undefined) 25.1 µM [inhibitor, full curve]
COc1ccc(Br)cc1C(=O)NC(=S)Nc1cc(-c2nc3ccccc3[nH]2)ccc1C 44.7 µM [inhibitor, single point]
COC(=O)C1=C(C)N(Cc2ccccc2)C(=NCCc2cccnc2)N[C@H]1c1ccccc1 31.6 µM [inhibitor, partial curve]
N/C(Cc1cccc2ccccc12)=N\OC(=O)c1ccc2c(c1)OCO2 12.6 µM [inhibitor, partial curve]
O=C(CN1CCN(C(c2ccccc2)c2ccccc2)CC1)N1CCN(c2ccccc2)CC1 44.7 µM [inhibitor, partial curve]
CCCC(=O)Nc1ccc(-c2nc3cc(C)ccc3o2)cc1 79.4 µM [inhibitor, partial curve]
COc1cc(-c2ccc(Nc3ccccc3C(=O)O)c(OC)c2)ccc1Nc1ccccc1C(=O)O 56.2 µM [inhibitor, single point]
O=Nc1c(-c2ccccc2)[nH]n(-c2ccccc2)c1=O 89.1 µM [inhibitor, partial curve]
COc1ccc(CSc2ccc(-c3nc4ccccn4c3NCc3ccccc3)cc2OC)cc1 39.8 µM [inhibitor, single point]
CC1CCN(c2ccc(/C=N\Nc3nncn3N)cc2[N+](=O)[O-])CC1 39.8 µM [inhibitor, partial curve]
O=C(CN1CCN(c2ccc(F)cc2)CC1)Nc1nccs1 20 µM [inhibitor, full curve, poor fit]
CCCc1cc(NCCCn2ccnc2)n2nc(C)c(-c3ccccc3)c2n1 44.7 µM [inhibitor, partial curve]
Cc1ccc(Nc2ncccc2C(=O)O)cc1C 89.1 µM [inhibitor, partial curve]
COc1ccc(OC)c(-n2c(C)ccc2-c2ccc(S(C)(=O)=O)cc2)c1 56.2 µM [inhibitor, partial curve]
CC(C)c1ccc(Nc2c([N+](=O)[O-])c(=O)n(C)c3ccccc23)cc1 44.7 µM [inhibitor, partial curve]
CC(C)(C)C1CCC(C(=O)Nc2ccc(N3CCOCC3)cc2N2CCOCC2)CC1 (centres undefined) 44.7 µM [inhibitor, partial curve]
NC(=NCc1ccccc1)C(N=Nc1ccccc1)C(=O)NCc1ccccc1 (centres undefined) 50.1 µM [inhibitor, partial curve]
Cc1cccc2c1N(CCOc1ccc(C(C)(C)C)cc1)C(=O)C2=O 14.1 µM [inhibitor, partial curve]
S=C1CCC(c2ccc(Cl)cc2)=NN1c1ccccc1 35.5 µM [inhibitor, partial curve]
Cc1cc(N/N=C/c2ccc3c(c2)OCO3)nc2ccccc12 56.2 µM [inhibitor, partial curve]
COc1ccc(OC)c(NC(=O)/C=C/c2ccc(C)o2)c1 79.4 µM [inhibitor, partial curve]
CSc1cccc(CN2CCC(Oc3ccc(C(=O)N4CCCCC4)cc3)CC2)c1 79.4 µM [inhibitor, partial curve]
c1ccc(-c2csc3ncnc(N4CCN(Cc5ccc6c(c5)OCO6)CC4)c23)cc1 25.1 µM [inhibitor, partial curve]
CCOc1ccccc1CNc1ncnc2ccc(-c3c(C)noc3C)cc12 79.4 µM [inhibitor, partial curve]
Cc1cc2cc(CNC(=O)Nc3ccccc3)ccc2n1C 31.6 µM [inhibitor, partial curve]

Potency, inactive:
COc1cc2oc(=O)cc(C)c2c(OC)c1OC
O=C(CNS(=O)(=O)c1cccs1)N1CCN(c2cccc(C(F)(F)F)c2)CC1
CCO[C@H]1OC(C(N)=O)=C[C@@H](c2ccccc2)[C@@H]1CCCO
O=C(/C=C\c1ccccc1[N+](=O)[O-])Nc1ccccc1
COc1ccc(CNC(=O)c2ccc(CS(=O)(=O)c3ccccc3OC)o2)cc1
COc1ccccc1-n1c(C)cc(/C=C2\C(=N)N3N=C(CC(=O)N4CCOCC4)SC3=NC2=O)c1C
N#CC1=C(N)Oc2ccc3ccc(O)cc3c2C1c1cccnc1 (centres undefined)
Cc1ccc(S(=O)(=O)NCc2ccc(C(=O)NC3CCC(O)CC3)cc2)cc1C (centres undefined)
Cn1c(=O)cc(OCC(=O)NCCCN2CCN(c3ccccc3F)CC2)c2ccccc21
OC(CC#CCN1CCCCC1)(c1ccccc1)c1ccccc1

Activity change, negative = inhibition, inconclusive:
COc1ccc(N2CCN(C(=O)CCSCc3ccccc3F)CC2)cc1 -45.3% [inhibitor]
